According to PubChem BioAssay AID1508624 (National Center for Advancing Translational Sciences (NCATS), 2021):
Screen size: about 48,000 compounds; about 120 (0.25%) were called active. Roughly 4% stayed inconclusive and do not appear here. The call rests on the fitted dose curve; in most records, active means well fitted activation curve with a large enough effect; inconclusive means small, poorly fitted or top-dose-only effect, or another doubt; inactive means no such curve, though single readings can be large or run the other way. This is one part of the list.

Assay: Primary qHTS for Identification of Small Molecule Activators of Huntingtin-Antisense Promoter Activity; further: nearly all actives have a fitted effect of over 55% in size
Settings: HEK293 HTT-AS promoter firefly luciferase reporter, 24 h; series mostly up to 57.5 µM; activity change, positive = activation: at the top concentration
Text: Assay Provider: Russell L. Margolis M.D.
Department Neurology, Johns Hopkins University School of Medicine, Baltimore, MD
Huntington's Disease (HD) is a neurodegenerative disorder caused by a CAG repeat expansion in exon 1 of huntingtin (HTT). While there are currently no disease-modifying treatments for HD, recent efforts have focused on development of nucleotide-based therapeutics to lower HTT expression. As an alternative to siRNA or oligonucleotide methods, we hypothesized that suppression of HTT expression might be accomplished by small molecules that either (1) directly decrease HTT expression by suppressing HTT promoter activity or (2) indirectly decrease HTT expression by increasing the promoter activity of HTT-AS, the gene antisense to HTT that appears to inhibit expression of HTT.
We developed and employed a high throughput screen for modifiers of HTT and HTT-AS promoter activity using luminescent reporter HEK293 cells; of the 52,041 compounds tested, we identified 898 replicable hits. We used a rigorous stepwise approach to assess compound toxicity and the capacity of the compounds to specifically lower huntingtin protein in 5 different cell lines, including HEK293 cells, HD lymphoblastoid cells, mouse primary neurons, HD iPSCs differentiated into cortical-like neurons, and HD hESCs. We found no compounds which were able to lower huntingtin without lowering cell viability in all assays, though the potential efficacy of a few compounds at non-toxic doses could not be excluded.
SEQUENCE No. (1, 2, 3, etc.); […] (e.g., Cells, Incubation, Reagent, etc.); VALUE and DESCRIPTION.
1; Reagent; 4 uL; 2,500 Hek293 luciferase reporter cells per wells
3; Compound; 23 nL; Control inhibitor / compound library
5; Reagent; 2.5 uL; Firefly Luc reagent; Dual-Glo Luciferase Reporter Assay System (Promega)
6; Time; 10 min; room temperature incubation
7; Detection; Luminescence; FLuc
NOTES (numbers refer to sequence above)
1; High-throughput screening, measuring luminescence from a Hek293 luciferase reporter, was performed in 1,536 well white-walled tissue-culture treated plates. 2,500 cells were plated in 4 µL of Opti-MEM per well using a Multidrop Combi Reagent Dispenser (ThermoFisher).
2; Assay plates were cultured for 24 hours.
3; Control inhibitor (PTC124; final concentration of 50 uM) and compound library (at final concentrations of 460 nM - 57.5 uM) were added to the assay plate using the Kalypsis Pintool Robotic System equipped with 1536 pinheads.
4; Cells were then incubated for 24 hours at 37 degrees C prior to luminescence measurements.
5; In all cases, luminescence was measured using the Dual-Glo Luciferase Reporter Assay System (Promega) following the manufacturer's instructions.
6; Room temperature incubation.
7; Luminescence signal was obtained using the PerkinElmer ViewLux plate reader. Results were normalized to vehicle control (0% activity) and zero RLU (-100% activity).
For Cc1ccc(NC(=O)C2CCN(S(=O)(=O)c3ccc4[nH]c5c(c4c3)CCCCC5)CC2)cc1, the “activity change, positive = activation” value was inactive: -25.9%. With CCOC(=O)CSC1=Nc2ccccc2C2=NC(CCC(=O)NCc3ccc(F)cc3)C(=O)N12 (configuration not stated) the “activity change, positive = activation” value was inactive: 8.05%. With O=C(NCc1cccc(F)c1)C1CCCN(C(=O)N2CCOc3ccccc32)C1 (configuration not stated) the “activity change, positive = activation” value was inactive: -10.1%. In the case of CC1CN(C(=O)N2CCC(C(=O)NCc3cccs3)CC2)c2cc(Cl)ccc2O1 (configuration not stated), the “activity change, positive = activation” value is reported as inactive: -19.4%. In the case of COC(=O)c1cc2sc(Cl)cc2n1Cc1c(C)cc(C)cc1C, the “activity change, positive = activation” value is reported as inactive: 11%. In the case of COc1ccc(-c2c(C)c3ccc(O)c(CN4CCOCC4)c3oc2=O)cc1, the “activity change, positive = activation” value is reported as inactive: -0.803%. With CCn1c2ccccc2c2cc(NC(=O)COc3ccc(C)cc3C)ccc21 the “activity change, positive = activation” value was inactive: 6.47%. In the case of COc1ccc(OC)c(CNC(=O)c2ccc(C)c(NC(=O)c3nsc4ccccc34)c2)c1, the “activity change, positive = activation” value is reported as inactive: 22.3%. With CCCCNC(=O)C1CCN(S(=O)(=O)CCC)CC1 the “activity change, positive = activation” value was inactive: -15.6%. In the case of Cc1ccc(Cn2c(CNS(=O)(=O)c3cccc([N+](=O)[O-])c3)nc3cccnc32)cc1, the “activity change, positive = activation” value is reported as inactive: -24.6%. For CCOc1ccc(OCC)c(NS(=O)(=O)c2cc(-c3cnc(C)o3)ccc2OC)c1, the “activity change, positive = activation” value was inactive: -8.97%. In the case of COc1ccc(-c2cc(C)no2)cc1S(=O)(=O)Nc1c(C)cc(C)cc1C, the “activity change, positive = activation” value is reported as inactive: -27.9%. In the case of COc1ccc(OC)c(NC(=O)c2c(N3CCCC3=O)c3cc(OC)ccc3n2C)c1, the “activity change, positive = activation” value is reported as inactive: 0.319%. For Cc1nc2nncn2c(Nc2ccccc2)c1C, the “activity change, positive = activation” value was inactive: -27.5%. With CCc1nn2c(=O)cc(COC(=O)c3cccc(NC(=O)c4cccs4)c3)nc2s1 the “activity change, positive = activation” value was inactive: 14.4%. With CCOC(=O)c1c(-c2ccccc2)csc1NC(=O)c1cc(=O)c2ccc(C)cc2o1 the activity change, positive = activation was inactive: 11.1% [at 11.5 µM, percent change from vehicle, -100% = no light]. For Cc1ccccc1-n1nc(CO)c(C(=O)NCc2cccnc2)n1, the “activity change, positive = activation” value was inactive: -1.24%. In the case of CCc1cccc(C)c1NC(=O)Cn1cnc2c1c(=O)n(C)c(=O)n2C, the “activity change, positive = activation” value is reported as inactive: -30.1%. For COCCNC(=O)Nc1cc(C(=O)NCc2ccc(C(C)C)cc2)ccc1N1CCCC1, the “activity change, positive = activation” value was inactive: -7.06%. With COc1cc(C2NC(=O)c3c(sc4c3CCN(C)C4)N2)cc(Br)c1OC(=O)c1ccc(C)cc1 (configuration not stated) the “activity change, positive = activation” value was inactive: -11.9%. In the case of CCOC(=O)C1CCN(C(c2ccc(SC)cc2)c2c(O)cc(C)n(Cc3ccco3)c2=O)CC1 (configuration not stated), the “activity change, positive = activation” value is reported as inactive: -8.45%. In the case of Cc1cccc(N2CCN(C(=O)C3CCCN(S(=O)(=O)c4ccc5c(c4)oc(=O)n5C)C3)CC2)c1C (configuration not stated), the “activity change, positive = activation” value is reported as inactive: -45.3%. In the case of Cc1ccc(-n2ncc(C(=O)NCc3cccs3)c2C2CCN(C(=O)OC(C)(C)C)CC2)cc1, the “activity change, positive = activation” value is reported as inactive: -41.6%. In the case of Cc1ccc(CNC(=O)CN2C(=O)CCn3nc(-c4ccccc4)cc32)cc1, the “activity change, positive = activation” value is reported as inactive: -19.8%. For COc1ccccc1NC(=O)C(C)Sc1nnc2ccc3ccccc3n12 (configuration not stated), the “activity change, positive = activation” value was inactive: -6.7%. In the case of Clc1ccc2c(c1)C(N1CCNCC1)=Nc1ccccc1O2, the “activity change, positive = activation” value is reported as inactive: -11.6%. In the case of CCc1cccc2c(-c3ccccc3)nc(SCC(=O)Nc3ccccc3OC)nc12, the “activity change, positive = activation” value is reported as inactive: -9.67%. For CCCCC/C(C=O)=C\c1ccccc1, the “activity change, positive = activation” value was inactive: 2.75%. In the case of CCCn1c(=O)c2sccc2n2c(CCCC(=O)NC3CCC(C)CC3)nnc12 (configuration not stated), the “activity change, positive = activation” value is reported as inactive: 2.56%. For CCCCOc1ccc(C(=O)NCCc2csc(-c3cccc(F)c3)n2)cc1, the “activity change, positive = activation” value was inactive: -23.3%. For CCc1ccccc1NC(=O)C1CCN(S(=O)(=O)c2ccccc2)CC1, the “activity change, positive = activation” value was inactive: 0.992%. With COc1ccc(CNC(=O)C(C)Sc2nc(-c3ccccc3)cc(C(F)(F)F)n2)cc1 (configuration not stated) the “activity change, positive = activation” value was inactive: -21.7%. With O=C(Cn1ccnc1[N+](=O)[O-])NCc1ccccc1 the “activity change, positive = activation” value was inactive: 4.45%. With COc1ccc(OCC(=O)N2CCC(c3nc4ccccc4s3)CC2)cc1 the “activity change, positive = activation” value was inactive: -18.8%. In the case of CCCCOc1ccc(C(=O)Nc2ccc3oc(-c4cccnc4)nc3c2)cc1, the “activity change, positive = activation” value is reported as inactive: -11.6%. In the case of O=C(NC1CCCC1)c1ccc(CSc2nc3ccncc3n2Cc2cccc(F)c2)cc1, the “activity change, positive = activation” value is reported as inactive: -21.7%. For CCOc1cc(C(=O)NCc2ccc3c(c2)CCN3C(=O)c2ccc(F)cc2)cc(OCC)c1OCC, the “activity change, positive = activation” value was inactive: -19.1%. In the case of O=C1c2ccccc2C(=O)C1c1ccccc1, the “activity change, positive = activation” value is reported as inactive: -0.558%. In the case of Cc1ccc(CNC(=O)c2ccc3c(c2)c(C)c(C)n3Cc2ccccc2)o1, the “activity change, positive = activation” value is reported as inactive: -19.1%. For O=C(COc1ccccc1Cl)OCc1cc(=O)n2nc(C3CCCCC3)sc2n1, the “activity change, positive = activation” value was inactive: 2.9%. For CCn1ccc2cc(S(=O)(=O)N3CCC(C(=O)NCCc4ccccc4Cl)CC3)ccc21, the “activity change, positive = activation” value was inactive: -18.8%. In the case of CCc1ccc(C(=O)c2cnc3ccc(F)cc3c2S(=O)(=O)c2ccccc2)cc1, the “activity change, positive = activation” value is reported as inactive: -48.1%. For Cc1cccc(C(=O)Nc2ccc(-c3nc4ncccc4o3)cc2C)c1, the “activity change, positive = activation” value was inactive: 21.9%. With CC(C)OCCCNC(=O)c1cn(C)c2ccc(S(=O)(=O)N3CCCCCC3)cc2c1=O the activity change, positive = activation was inactive: 6.29% [at 11.5 µM, percent change from vehicle, -100% = no light]. In the case of O=C(O)CCCc1c[nH]c2ccccc12, the “activity change, positive = activation” value is reported as inactive: -17%. With Cc1cccc(S(=O)(=O)c2cn(Cc3ccccc3)c3cc(N4CCOCC4)c(F)cc3c2=O)c1 the “activity change, positive = activation” value was inactive: -22%. With COc1ccccc1Cn1cc(C(=O)c2ccc(Cl)cc2)c(=O)c2ccccc21 the “activity change, positive = activation” value was inactive: -60.4%.
